The source of these data is the RNAGym collection of RNA variant scans (doi:10.1093/nar/gkz1192).

The source gives no read counts; variants with many changes may rest on few reads.

The labels stand for the following.
B1: CPEB3 Ribozyme (parent)
chain: UAACAGGGGGCCACAGCAGAAGCGUUCACGUCGCAGCCCCUGUCAGAUUCUGGUGAAUCUGCGAAUUCUGCUGUAUAUCUC

In this data set the parent is B1. The experiment in a line: self-cleavage, relative activity (ratio to wild type); higher = more cleavage; in vitro, sequencing. The procedure, abridged:
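Relative activity was defined as the cleaved/total read fraction for a variant divided by the same fraction for the unmutated ribozyme. CPEB3 self-cleaving ribozyme libraries were made by rounds of error-prone PCR, barcoded, and transcribed in vitro with T7 RNA polymerase for 5 hours at 37°C, and cleavage ran through transcription plus a 15 min DNase I step before EDTA. Illumina sequencing of template-switched reverse transcripts gave the reads, and DNA sequencing mapped the barcodes. Averages come from three batches, using variants with at least 5 reads.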
Turning to C23A U26C A45G U54C, the self-cleavage is 0.37.
The same measure for G24C C34G U78C: 0.19; for A21U A28G U31C U66A: 0.41; for G24C C29A A65G: 0.16.
The same measure for A21U U26C C81A: 0.12; for C23A A47G U51C A64G U76C: 0.28; for U25A U26C U51A: 0.47.
The same measure for A21G U41C U54A: 0.39; for G24A U31A U48C A56G A75C: 0.17; for A21G U43C U48A A65G: 0.08.
As for G22U U26C U41C U54C A64G U78C, the self-cleavage is 0.12.
The same measure for G24A U51A U69C: 0.08; for G24U U31C A35G U41A U49C U51A U69A: 0.11.
To A21G U43G A45G A57G A64G belongs 0.18.
The same measure for C23A U26A A35G U76A: 0.35.
For the variant U25A U43C U76C, the self-cleavage came out at 0.27.
To A21U U31A A45G U49C U76C belongs 0.11.
For U25A U41C A65G, the self-cleavage was found to be 0.49.
To G24U A45U U58A A64U belongs 0.1; to G24C U31C U41A U72C U74C U76C, 0.16.
Regarding A21G U60A U67A, the self-cleavage was determined as 0.09.
Take C23U A35G U41C U54C: the self-cleavage was 0.62.
To G24U A35G U72C belongs 0.84; to C23U C29A U54C U76C, 0.08.
For A21U U41C U80A, the self-cleavage was 0.3.
As for A21U U25C U31C A35C U72C U76C U78A, the self-cleavage came to 0.13.
U25A A28U A45U U80G: the self-cleavage was 0.19.
Turning to A21U U66C U72C A77U, the self-cleavage was 0.19.
For the variant U25A U31C U51C A56G U76A U78C, the self-cleavage turned out to be 0.08.
Take A21U U31C A56G U76C: the self-cleavage was found to be 0.45.
The same measure for U25A C32A U43A U78G: 0.22; for A21G U48C U60C: 0.21.
Take G22C A28G U60C: the self-cleavage came out at 0.17.
The same measure for G24C G33C C50U U54C U60C: 0.12.
Consider C23U A47G U72A, for which the self-cleavage is 0.52.
The same measure for G24A C44G C50U U66C: 0.06.
For A21G U74C C81U, the self-cleavage came to 1.07.
To A21G U69C G70U belongs 0.52; to C23G C38A U67C A75G, 0.06; to U25A G63A A64G, 0.16.
The same measure for G22A C23U U26C U49G: 0.09; for A21U U48C U49A U54A A75G U78C: 0.07; for G24A U31C C39A A56G U60A A64G: 0.05.
To C23U A45G G73U belongs 0.69; to G22C U49C C62U A64U, 0.05; to U25A A77U U78C, 0.22.
On to G24A A28G U49C, for which the self-cleavage was determined as 0.13.
Regarding C23U A57G U60A, the self-cleavage came to 0.24.
To A21U U41G U80A belongs 0.25; to C23G U25A A45U C62A A64G, 0.09.
The same measure for G24A A28C G42U C71U: 0.1.
To U25A G30A A45G U51C U72C A77U belongs 0.15.
For C23A G53C U58A U78C, the self-cleavage turned out to be 0.19.
On to G24U U26A U31C U43A U54C, for which the self-cleavage turned out to be 0.15.
As to A21U A45U U66A, the self-cleavage is 0.57.
For the variant A21G U51C U54A, the self-cleavage turned out to be 0.12.
The same measure for A21U U26A U72C: 0.18; for A21G U43C U80C: 0.49; for G24A A35U C40U A45G U67C A75G U78C: 0.17.
The same measure for U25A G52U U60C: 0.12.
The same measure for G24A A47G U54C: 0.39.
For the variant A21G U49C U58C U66C U72C A75G, the self-cleavage came out at 0.
As for U25A C50G U58A U66C U80A, the self-cleavage stood at 0.05.
To C23U U31C U80A belongs 0.59; to C23U U41C A57U, 0.09; to U25A C27A U49A A65G, 0.08.
As for U25A G36U U54G A65U A75U U76A, the self-cleavage was 0.06.
As to G24A U41C C59A, the self-cleavage was 0.12.
The same measure for A21U U60C U72A: 0.11; for U25A C40U U48C: 0.15.
Turning to U25A A28C U41C A45G U69G, the self-cleavage was 0.12.
With C23G A28G A47G, the self-cleavage came out at 0.25.
To A21G U31C U49A belongs 0.16.
The same measure for A21G U43C U54C U74A: 0.38.
Consider U25A U41A U43A U48A, for which the self-cleavage was found to be 0.15.
C23G C34G U48C U51C G55A: the self-cleavage stood at 0.15.
For the variant C23U A64U U72A, the self-cleavage was determined as 0.1.
Turning to A21G U43G A47G A64G U74C, the self-cleavage is 0.28.
Regarding A21G U41A A56U A65G, the self-cleavage came out at 0.16.
To C23U U26C A47G belongs 0.46; to C23U A28U U66A, 0.12; to A21U U25C U54A, 0.21.
Turning to G24A U26C C40U U54A U72C, the self-cleavage is 0.08.
For G24A G30A U31C A65G, the self-cleavage is 0.22.
